# Measurements reported in the RNAGym collection of RNA variant scans (doi:10.1093/nar/gkz1192).
# The source gives no read counts; variants with many changes may rest on few reads.
# B1: CPEB3 Ribozyme (parent)
# chain: UAACAGGGGGCCACAGCAGAAGCGUUCACGUCGCAGCCCCUGUCAGAUUCUGGUGAAUCUGCGAAUUCUGCUGUAUAUCUC
# Variants of: B1
# Assay: self-cleavage, relative activity (ratio to wild type); higher = more cleavage; in vitro, sequencing
# How it was run: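 After error-prone PCR and barcoding, CPEB3 ribozyme mutant libraries were transcribed with T7 RNA polymerase at 37°C for 5 hours, then given 15 min with DNase I before an EDTA stop, and they cleaved during both steps. Reverse transcription with template switching preceded Illumina sequencing. Relative activity divides a variant's cleaved/total read fraction by the unmutated ribozyme's. At least 5 reads were required per variant, and three batches were averaged.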
row,Variant,self-cleavage
1,UAACAGGGGGCCACAGCAGUAGCGAUCACGUCGCAGCCCCUGUCAGAUUCUGGAGAAUCUGCGAAUUCUGCAGUAUAUCUC [A20U U25A U54A U72A],0.13
2,UAACAGGGGGCCACAGCAGUAGCGCUCACGUCGCGGCCCCUGUCAGAUUCUGGUGAAUCUGCGAAUUCUGCCGUAUAUCUC [A20U U25C A35G U72C],0.07
3,UAACAGGGGGCCACAGCAGUAGCGCACACGUCGCAGCCCCUGUCAGAUUUUGGUGAUUCUGCGAAUUCUGCUGUAUAUCUC [A20U U25C U26A C50U A57U],0.06
4,UAACAGGGGGCCACAGCAGUAGCGCUCACGACGCAGCCCCUGUCAGAUCCUGGUGAAUCUGCGAACUCUGCUGUAUAUCUC [A20U U25C U31A U49C U66C],0.06
5,UAACAGGGGGCCACAGCAGUAGCGCUCACGGCGCAGCCCCUGUCAGAUUCCGGUGAAUCUGCGAAUUCUGCUGUAUAUCAC [A20U U25C U31G U51C U80A],0.12
6,UAACAGGGGGCCACAGCAGUAGCGCUCACGUCGCAGCCCCCGUCAGAUUCUGGUGAAUCUGCGAAUUCUGCUGUUUAUCUC [A20U U25C U41C A75U],0.29
7,UAACAGGGGGCCACAGCAGUAGCGCUCACGUCGCAGCCCCCGUCAGAUUCUGGUGAAUCUGAGAAUUCUGCAGUAUAUCUC [A20U U25C U41C C62A U72A],0.06
8,UAACAGGGGGCCACAGCAGUAGCGCUCACGUCGCAGCCCCCGUCAGAUUCAGGUGAAUCCGCGAAUUCUGCUGUAUAUCUC [A20U U25C U41C U51A U60C],0.09
9,UAACAGGGGGCCACAGCAGUAGCGCUCACGUCGCAGCCCCUGUCAGAUUCUGGUGAAUCUGCGAACUCUGCUGCAUAUCUC [A20U U25C U66C U74C],0.18
10,UAACAGGGGGCCACAGCAGUAGCGUACACGUCGCAGCCCCUGUCGGAUUCUGGUGAGUCUGCGAAUUCUGCUGUAUAUCUC [A20U U26A A45G A57G],0.19
11,UAACAGGGGGCCACAGCAGUAGCGUCCGCGUCGCAGCCCCUGUCAGAUUCUGGUGAAUCUGCGAGAUGUGGUGUAUAUCUC [A20U U26C A28G A65G U66A C68G C71G],0.14
12,UAACAGGGGGCCACAGCAGUAGCGUCCACGUUGCAGCCCCUGACAGAUUCUGGUGAAUCUGCGAAUUCUGCUGUAUAUCUC [A20U U26C C32U U43A],0.04
13,UAACAGGGGGCCACAGCAGUAGCGUCCACGCCGCAGCCCCUGUCAGAUUCUGGUGAAUCUGCGAAUUCUGCCGCAUAUCUC [A20U U26C U31C U72C U74C],0.11
14,UAACAGGGGGCCACAGCAGUAGCGUCCACGUCGCAGCCCCUGUCAGAUUCAGGUGAAUCUGCGAAUUCUGCUAUAUAUCUC [A20U U26C U51A G73A],0.13
15,UAACAGGGGGCCACAGCAGUAGCGUCCACGUCGCAGCCCCUGUCAGAUUCUGGUGAAUCUGCGAAUUCUGCUGUAUACCUC [A20U U26C U78C],0.06
16,UAACAGGGGGCCACAGCAGUAGCGUUCACGACGCAGCCCCUGUCAGAUUCUGGUGAAUCUGCGAAUUCUGCCGUAUAUCUC [A20U U31A U72C],0.31
17,UAACAGGGGGCCACAGCAGUAGCGUUCACGCCGCGGCCCCUGUCAGAUUCUGGUGAAUCAGUGAAUUCUGCUGUAUAUCUC [A20U U31C A35G U60A C62U],0.18

row,Variant,self-cleavage
1,UAACAGGGGGCCACAGCAGUAGCGUUCACGCUGCAGCCCCUGUCAGAUUCUGGUGAAUCUGCGAAUUCUGCUGUAUAUCUC [A20U U31C C32U],0.11
2,UAACAGGGGGCCACAGCAGUAGCGUUCACGCCGCAACCCCUGUCAGAUUCUGGUGAGUCUGCGAAUUCUGCUGUAUAUCUC [A20U U31C G36A A57G],0.11
3,UAACAGGGGGCCACAGCAGUAGCGUUCACGCCGCAGCCCCUGUCAGAUUCUGGUGAAUCUGCAAAUUCUGCUGUAUAUCAC [A20U U31C G63A U80A],0.09
4,UAACAGGGGGCCACAGCAGUAGCGUUCACGCCGCAGCCCCUGCCAGAUUCUGGUGAAUCUGCGGAUUCUGCCGUAUAUCCC [A20U U31C U43C A64G U72C U80C],0.06
5,UAACAGGGGGCCACAGCAGUAGCGUUCACGCCGCAGCCCCUGCCAGAUUCUGGUGAAUCCGCGAAUUCUGCUGUAUAUCUC [A20U U31C U43C U60C],0.15
6,UAACAGGGGGCCACAGCAGUAGCGUUCACGCCGCAGCCCCUGUCAGAUCCUGGUGAAUCUGCGAAUUCUGCUGUAUAUCUC [A20U U31C U49C],0.19
7,UAACAGGGGGCCACAGCAGUAGCGUUCACGUCGCAGCCCCAGUCAGAUUCUGGUGGAUCUGCGAAUUCUGCUGUAUAUCUC [A20U U41A A56G],0.18
8,UAACAGGGGGCCACAGCAGUAGCGUUCACGUCGCAGCCCCAGUCAGAUUCUGGUGAAUCUGCGAAUUCUGCUGUAUGUCUC [A20U U41A A77G],0.18
9,UAACAGGGGGCCACAGCAGUAGCGUUCACGUCGCAGCCCCAGUCAGAUUCUGGUUAACCUGCGAAUUCUGCCGUAUAUCUC [A20U U41A G55U U58C U72C],0.05
10,UAACAGGGGGCCACAGCAGUAGCGUUCACGUCGCAGCCCCAGUCAGAUACCGGUGAAUCUGCGAAUUCUGCUGUAUAUCUC [A20U U41A U49A U51C],0.05
11,UAACAGGGGGCCACAGCAGUAGCGUUCACGUCGCAGCCCCCGUCAGGUUCUGGUGAAUCUGCGAAUUCUGCUGUAUGUCUC [A20U U41C A47G A77G],0.13
12,UAACAGGGGGCCACAGCAGUAGCGUUCACGUCGCAGCCCCCGUCAGGUUCCGGUGAAUCUGCGUAUUCUGCUGUAUAUCAC [A20U U41C A47G U51C A64U U80A],0.09
13,UAACAGGGGGCCACAGCAGUAGCGUUCACGUCGCAGCCCCCGUCAGAUUCUGGUGUAUCUGCGAAUUCUGCUGUAUACCUC [A20U U41C A56U U78C],0.27
14,UAACAGGGGGCCACAGCAGUAGCGUUCACGUCGCAGCCCCCGUCAGAUCCUGGUGAAUCUGCGAAUUCUGCUGUAUAUCUC [A20U U41C U49C],0.13
15,UAACAGGGGGCCACAGCAGUAGCGUUCACGUCGCAGCCCCCGUCAGAUUCUGGUGAAUCUGCGAAUUCUGCUGUAUACCUC [A20U U41C U78C],0.2
16,UAACAGGGGGCCACAGCAGUAGCGUUCACGUCGCAGCCCCGGUCAGAUUCUGGUGAGUCAGCGAAUUCUGCUGUAUAUCUC [A20U U41G A57G U60A],0.06
17,UAACAGGGGGCCACAGCAGUAGCGUUCACGUCGCAGCCCCUGACAGAUUCUAGUGAAUCUGCGAAUUCUGCUGUAUAUCUC [A20U U43A G52A],0.49
